# Assay results published in the supplement of paper PMC10037445.
# ± gives the standard deviation of the averaged measurements. Over roughly 2,900 compounds, “IRF Lucia reporter activity, fold change vs agonist alone” has its median near 0.9; the highest 2% begin near 2.8. This is one part of the list.
# Key:
# RAW-Dual [1] = test: IRF Lucia reporter activity, fold change vs agonist alone; cytotoxicity flag (confluency mask): not cytotoxic; higher = enhanced IRF activity
# How it was run: (§1)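 After 50 nL of library stock was delivered by pin tool to RAW-Dual macrophages (50,000 cells/well, DMEM, 384-well plates), a PRR agonist was added 1 h later and the plates were kept at 37 °C, 5% CO2. Twenty hours later, IRF was read from supernatant by QuantiLuc luminescence and NF-κB by QuantiBlue absorbance at 620 nm. Reporter activity is stated as fold change over agonist-alone wells. Wells with IncuCyte confluency under 70% of agonist controls in both mask sets were counted as cytotoxic.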
# RAW-Dual [2] = test: IRF Lucia reporter activity, fold change vs agonist alone; higher = enhanced IRF activity; conditions: agonist: MPLA (TLR4) […]
# How it was run: as §1
# RAW-Dual [3] = test: IRF Lucia reporter activity, fold change vs agonist alone; cytotoxicity flag (confluency mask): cytotoxic (confluency <70% of control); higher = enhanced IRF activity
# How it was run: as §1
# [4] = agonist: 3'3'-cGAMP (STING) 10 ug/mL
# [5] = library stock concentration (final ~1000-fold dilution): 10 mM, cytotoxicity flag (confluency mask): cytotoxic (confluency <70% of control)
# [6] = library stock concentration (final ~1000-fold dilution): 10 mM, cytotoxicity flag (confluency mask): not cytotoxic
structure (smiles),measurement,setting,value
C=C1c2cccc(O)c2C(=O)C2=C(O)C3(O)C(=O)C(C(N)=O)=C(O)C(N(C)C)C3C(O)C12.Cl (stereo not given) (library stock concentration (final ~1000-fold dilution): 10 mM water),IRF Lucia reporter activity,RAW-Dual [1]; [4],1.22
same,IRF Lucia reporter activity,RAW-Dual [1]; agonist: LPS (TLR4) 0.1 ug/mL,0.852
C=C1c2cccc(O)c2C(=O)C2=C(O)C3(O)C(=O)C(C(N)=O)=C(O)C(N(C)C)C3C(O)C12.Cl (stereo not given),IRF Lucia reporter activity,"RAW-Dual [2]; library stock concentration (final ~1000-fold dilution): 10 mM water, cytotoxicity flag (confluency mask): not cytotoxic",1.35
CCN(CC)CCOc1ccc(Nc2ncc3cc(-c4c(Cl)cccc4Cl)c(=O)n(C)c3n2)cc1 (library stock concentration (final ~1000-fold dilution): 10 mM),IRF Lucia reporter activity,RAW-Dual [3]; [4],0.107
same,IRF Lucia reporter activity,RAW-Dual [3]; agonist: LPS (TLR4) 0.1 ug/mL,0.0105
Cc1sc2c(c1C)C(c1ccc(Cl)cc1)=N[C@@H](CC(=O)NCCCCCCCCNC(=O)COc1cccc3c1C(=O)N(C1CCC(=O)NC1=O)C3=O)c1nnc(C)n1-2 (stereo not given in full) (library stock concentration (final ~1000-fold dilution): 10 mM),IRF Lucia reporter activity,RAW-Dual [3]; [4],0.189
same,IRF Lucia reporter activity,RAW-Dual [3]; agonist: LPS (TLR4) 0.1 ug/mL,0.244
CC(C)C(CO)Nc1nc(Nc2cccc(Cl)c2)c2ncn(C(C)C)c2n1 (stereo not given) (library stock concentration (final ~1000-fold dilution): 10 mM),IRF Lucia reporter activity,RAW-Dual [1]; [4],0.0133
same,IRF Lucia reporter activity,RAW-Dual [1]; agonist: LPS (TLR4) 0.1 ug/mL,0.152
CNC(=O)c1ccc(Nc2ncc(C(F)(F)F)c(NCc3nccnc3N(C)S(C)(=O)=O)n2)cc1 (library stock concentration (final ~1000-fold dilution): 2 mM),IRF Lucia reporter activity,RAW-Dual [1]; [4],0.464
same,IRF Lucia reporter activity,RAW-Dual [1]; agonist: LPS (TLR4) 0.1 ug/mL,0.119
CC(C)(C)c1ccc(S(=O)(=O)/C=C/C#N)cc1,IRF Lucia reporter activity,RAW-Dual [2]; [5],0.403 ± 0.54
CC(C)(C)c1ccc(S(=O)(=O)/C=C/C#N)cc1 (library stock concentration (final ~1000-fold dilution): 10 mM),IRF Lucia reporter activity,RAW-Dual [1]; [4],0.00698
same,IRF Lucia reporter activity,RAW-Dual [1]; agonist: LPS (TLR4) 0.1 ug/mL,0.00878
same,IRF Lucia reporter activity,RAW-Dual [3]; [4],0.0107 ± 0.00056
same,IRF Lucia reporter activity,RAW-Dual [3]; agonist: LPS (TLR4) 0.1 ug/mL,0.0214 ± 0.0092
CCNC(=O)C#Cc1ccc2c(c1)NC(=O)/C2=C(\Nc1ccc(CN(C)C)cc1)c1ccccc1 (library stock concentration (final ~1000-fold dilution): 10 mM),IRF Lucia reporter activity,RAW-Dual [3]; [4],0.0141
same,IRF Lucia reporter activity,RAW-Dual [3]; agonist: LPS (TLR4) 0.1 ug/mL,0.0123
Cc1cc(N2CCOCC2)ccc1Nc1nc(NC2CCCCC2)c2nc[nH]c2n1 (library stock concentration (final ~1000-fold dilution): 10 mM),IRF Lucia reporter activity,RAW-Dual [1]; [4],0.536
same,IRF Lucia reporter activity,RAW-Dual [1]; agonist: LPS (TLR4) 0.1 ug/mL,0.674
Cc1cc(N2CCOCC2)ccc1Nc1nc(NC2CCCCC2)c2nc[nH]c2n1,IRF Lucia reporter activity,RAW-Dual [2]; [6],0.884
COc1ccc(-c2nc(-c3cc(C(F)(F)F)cc(C(F)(F)F)c3)n(Cc3ccc(C(N)=O)cc3)c2-c2ccc(OC)cc2)cc1 (library stock concentration (final ~1000-fold dilution): 10 mM),IRF Lucia reporter activity,RAW-Dual [1]; [4],0.676
same,IRF Lucia reporter activity,RAW-Dual [1]; agonist: LPS (TLR4) 0.1 ug/mL,1.1
CCCNC(=O)Nc1ccc(Oc2ncnc3cc(OC)c(OC)cc23)cc1Cl,IRF Lucia reporter activity,RAW-Dual [2]; [6],0.93
CCCNC(=O)Nc1ccc(Oc2ncnc3cc(OC)c(OC)cc23)cc1Cl (library stock concentration (final ~1000-fold dilution): 10 mM),IRF Lucia reporter activity,RAW-Dual [1]; [4],0.817
same,IRF Lucia reporter activity,RAW-Dual [1]; agonist: LPS (TLR4) 0.1 ug/mL,0.856
O=C(NCc1ccccn1)Nc1nnc(-c2ccco2)o1 (library stock concentration (final ~1000-fold dilution): 10 mM),IRF Lucia reporter activity,RAW-Dual [1]; [4],0.858
same,IRF Lucia reporter activity,RAW-Dual [1]; agonist: LPS (TLR4) 0.1 ug/mL,1.03
COC1=CC(=O)c2ccccc2C1=O,IRF Lucia reporter activity,RAW-Dual [2]; [5],0.0543
COC1=CC(=O)c2ccccc2C1=O (library stock concentration (final ~1000-fold dilution): 10 mM),IRF Lucia reporter activity,RAW-Dual [3]; [4],0.0142
same,IRF Lucia reporter activity,RAW-Dual [3]; agonist: LPS (TLR4) 0.1 ug/mL,0.0169
Cc1cn(-c2cc(NC(=O)c3ccc(C)c(Nc4nccc(-c5cccnc5)n4)c3)cc(C(F)(F)F)c2)cn1,IRF Lucia reporter activity,RAW-Dual [2]; [6],1.07
Cc1cn(-c2cc(NC(=O)c3ccc(C)c(Nc4nccc(-c5cccnc5)n4)c3)cc(C(F)(F)F)c2)cn1 (library stock concentration (final ~1000-fold dilution): 10 mM),IRF Lucia reporter activity,RAW-Dual [1]; [4],1.23
same,IRF Lucia reporter activity,RAW-Dual [1]; agonist: LPS (TLR4) 0.1 ug/mL,1.5
Br.COc1cc(Br)c(Nc2nc(-c3c(C)nc4ncccn34)cs2)c(Br)c1 (library stock concentration (final ~1000-fold dilution): 10 mM),IRF Lucia reporter activity,RAW-Dual [1]; [4],0.318
same,IRF Lucia reporter activity,RAW-Dual [1]; agonist: LPS (TLR4) 0.1 ug/mL,2.19
Br.COc1cc(Br)c(Nc2nc(-c3c(C)nc4ncccn34)cs2)c(Br)c1,IRF Lucia reporter activity,RAW-Dual [2]; [6],1.37
O=c1[nH]c(=O)c2nc3ccccc3nc2[nH]1 (library stock concentration (final ~1000-fold dilution): 2 mM),IRF Lucia reporter activity,RAW-Dual [1]; [4],0.892
same,IRF Lucia reporter activity,RAW-Dual [1]; agonist: LPS (TLR4) 0.1 ug/mL,1.12
O=c1[nH]c(=O)c2nc3ccccc3nc2[nH]1,IRF Lucia reporter activity,"RAW-Dual [2]; library stock concentration (final ~1000-fold dilution): 2 mM, cytotoxicity flag (confluency mask): not cytotoxic",1
COC(=O)C1=C(C)NC(C)=C(C(=O)OC(C)(C)CN(C)CCC(c2ccccc2)c2ccccc2)C1c1cccc([N+](=O)[O-])c1.Cl (stereo not given) (library stock concentration (final ~1000-fold dilution): 10 mM),IRF Lucia reporter activity,RAW-Dual [1]; [4],0.139
same,IRF Lucia reporter activity,RAW-Dual [1]; agonist: LPS (TLR4) 0.1 ug/mL,3.23
COC(=O)C1=C(C)NC(C)=C(C(=O)OC(C)(C)CN(C)CCC(c2ccccc2)c2ccccc2)C1c1cccc([N+](=O)[O-])c1.Cl (stereo not given),IRF Lucia reporter activity,RAW-Dual [2]; [6],2.1
CC1COCCN1c1cc(C2(S(C)(=N)=O)CC2)nc(-c2ccnc3[nH]ccc23)n1 (stereo not given) (library stock concentration (final ~1000-fold dilution): 10 mM),IRF Lucia reporter activity,RAW-Dual [1]; [4],0.193
same,IRF Lucia reporter activity,RAW-Dual [1]; agonist: LPS (TLR4) 0.1 ug/mL,1.39
